In PubChem BioAssay AID2060343 (Molecular Pharmacology Branch, DTP, NCI, 2025):
For part of its entries the source gives two or more results. This is not the full list of results. An entry can have further records. Values that stand side by side are repeats in other runs, samples, wells, individuals or studies.

Test system: 138582-337-R-J1-PDC spheroids with HUVEC/MSC, viability
Experiment: Anticancer human tumor 138582-337-R-J1-PDC patient-derived Merkel cell tumor cell line growth inhibition [IpAb]
Conditions: compound alone; run of 05/18/2021
Source text: Combinatorial screen of targeted agents with ipatasertib and abemaciclib in multi-cell type tumor spheroids
A high-throughput screen of multi-cell type tumor spheroids was designed to identify active combinations of targeted small molecules and ipatasertib or abemaciclib. Complex spheroids include a stromal component modeled by human endothelial cells (HUVEC) and fibroblasts modeled by human mesenchymal stem cells (MSCs). The concentration ranges selected for each drug and investigational agent were based upon clinically achievable concentrations if the clinical Cmax of the agent was known.
Compounds. […] If the clinical Cmax for an agent had not been determined, the highest concentration tested was 10 microM.
NCI60 Cell Culture. […] The optimal seeding densities for each of the cell lines at each time point assessed were determined prior to performing the concentration response studies. […]
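Also: spheroids exposed to compounds for seven days.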

## CC(C)NCC(C(=O)N1CCN(c2ncnc3c2C(C)CC3O)CC1)c1ccc(Cl)cc1 (stereo unspecified)
  IC50: 2.24, 5.91, 2.54, 3.1, 3.71, 4.77, 2.17, 7.4, 5.14, 6.92, 4.73, 2.96, 3.88 µM
